# Source: article PMC4336329 (PLoS ONE, 2015)
# Hit rate of the full screen: of about 310,000 compounds, about 14,000 (4.5%) showed an effect of 50% or more. Effects have a minus sign here. The list shows a part of the results.
# Molecular target: human ether-à-go-go-related gene (hERG) potassium channel (human, UniProt Q12809)
# Assay: primary screen, population patch clamp on CHO cells stably expressing hERG
# 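Note: peak tail current of the secondary pulse compared with the same well before compound.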
# Sequence of human ether-à-go-go-related gene (hERG) potassium channel (Q12809 whole entry, looked up): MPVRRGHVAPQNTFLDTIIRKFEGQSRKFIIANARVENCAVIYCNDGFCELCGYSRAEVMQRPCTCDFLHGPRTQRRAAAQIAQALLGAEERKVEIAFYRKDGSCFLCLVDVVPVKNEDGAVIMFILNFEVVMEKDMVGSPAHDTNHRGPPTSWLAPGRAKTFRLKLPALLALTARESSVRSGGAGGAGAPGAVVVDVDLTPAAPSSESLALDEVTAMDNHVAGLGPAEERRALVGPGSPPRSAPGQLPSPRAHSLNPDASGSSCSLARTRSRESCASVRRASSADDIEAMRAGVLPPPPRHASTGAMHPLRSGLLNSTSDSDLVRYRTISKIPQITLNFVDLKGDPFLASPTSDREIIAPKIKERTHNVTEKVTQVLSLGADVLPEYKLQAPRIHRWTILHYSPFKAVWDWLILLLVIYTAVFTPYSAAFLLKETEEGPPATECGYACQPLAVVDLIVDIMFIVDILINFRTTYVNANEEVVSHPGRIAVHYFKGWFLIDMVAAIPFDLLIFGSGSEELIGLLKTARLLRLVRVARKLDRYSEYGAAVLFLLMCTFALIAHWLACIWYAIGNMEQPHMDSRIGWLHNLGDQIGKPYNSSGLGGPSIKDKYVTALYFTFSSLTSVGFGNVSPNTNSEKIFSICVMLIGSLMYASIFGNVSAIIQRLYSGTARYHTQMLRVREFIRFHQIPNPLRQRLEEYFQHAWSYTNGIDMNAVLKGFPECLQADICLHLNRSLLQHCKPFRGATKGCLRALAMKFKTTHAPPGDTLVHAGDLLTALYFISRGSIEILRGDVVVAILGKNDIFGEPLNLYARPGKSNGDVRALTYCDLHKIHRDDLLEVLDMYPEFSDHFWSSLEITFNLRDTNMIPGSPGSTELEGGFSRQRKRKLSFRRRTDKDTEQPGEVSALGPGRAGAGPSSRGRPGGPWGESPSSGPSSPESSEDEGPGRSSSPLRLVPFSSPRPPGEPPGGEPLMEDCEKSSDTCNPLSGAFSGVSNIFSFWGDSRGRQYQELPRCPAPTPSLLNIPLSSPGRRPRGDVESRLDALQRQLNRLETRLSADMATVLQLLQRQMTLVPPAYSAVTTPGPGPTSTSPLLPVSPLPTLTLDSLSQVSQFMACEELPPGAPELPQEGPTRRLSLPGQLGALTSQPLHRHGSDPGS
row,SMILES,"hERG current change (%, negative = inhibition) at 10uM [%]"
1,CC(C)C(=O)Nc1c(-c2cccc(Cl)c2)c(=O)c2ccccc2n1C,28.8
2,O=C(Nc1cccc(C(F)(F)F)c1)Oc1ccccc1N1CCOCC1,13.7
3,COc1ccccc1N1CCN(C(=O)COc2cccc3ccccc23)CC1,-3.84
4,CCC(=O)NC(c1ccccc1Cl)c1c(O)ccc2ccccc12 (stereo not drawn),-14.4
5,Cc1[nH]c2ccccc2c1/C=N/Nc1cccc(C(=O)O)c1,4.8
6,COc1ccc(/C=N/NC(=O)c2ccoc2C)cc1O,-4.47
7,COc1ccc2c(c1)OC[C@H]1[C@H]2N2C(=O)c3cc(Cl)ccc3NC(=O)[C@@]2(C)[C@H]1c1ccccc1,-1.2
8,CC(=O)n1cc(N(C(=O)CCl)c2ccc([N+](=O)[O-])cc2)c2ccccc21,-57.1
9,O=C(C1CCCCC1)N(CCN1CCCC1)c1nc2ccccc2s1,-30.1
10,Cc1c(Cl)cccc1NC(=O)C(=O)NNC(=O)c1ccccc1F,2.8
11,Cc1cc(C)n(CC(=O)NNC(=O)CCNC(=O)c2ccccc2Cl)n1,-16.1
12,CC1CCC(NC(=O)CCNC(=O)c2ccc(Br)cc2)CC1 (stereo not drawn),9.75
13,c1ccc(-c2n[nH]c(-c3ccccc3)c2-c2nc3ccccc3[nH]2)cc1,-10.3
14,Cc1cc(/C=N\NC(=O)CC(=O)NC2CCCCC2)c(C)n1-c1ccc(Cl)cc1,3.96
15,C=CCN(CC=C)C(=O)C(=O)c1ccn(-c2c(C)csc2C(=O)OC)c1,-70.3
16,Nc1[nH]nc2nc(N3CCCC3)nc(-c3ccccc3)c12,3.94
17,COC(=O)c1ccc(CS(=O)(=O)c2ccc(C)cc2)o1,18.9
18,Nc1ccc(C(=O)NCC(=O)O)cc1,18.1
19,CC1=C(C(=O)Nc2ccccc2)C(c2cc(CN3CCOCC3)cs2)C2=C(CCCC2=O)N1 (stereo not drawn),10.9

row,SMILES,"hERG current change (%, negative = inhibition) at 10uM [%]"
1,COc1ccc(C(=O)NC(CCSC)C(=O)NC2CC2)cc1 (stereo not drawn),-9.33
2,Nc1nc(SCc2ccc(F)cc2)ns1,6.5
3,Cl.O=C(NCCCN1CCOCC1)C(=O)c1c[nH]c2ccccc12,-3.03
4,CCCCN(C)C(=O)c1nc2ccccn2c1CN1CCSCC1,6.32
5,Cn1c(=O)[nH]c(=O)c2c1nc(NC1CCCCC1)n2CCO,-16
6,O=C(O)[C@H](Cc1ccccc1)NC(=O)C(c1ccccc1)(c1ccccc1)c1ccccc1,22.6
7,O=C1CN(C(=O)COC(=O)CNS(=O)(=O)c2ccccc2)c2ccccc2N1,23.8
8,CCOC(=O)c1c(C)c(C(=O)NCc2ccco2)c(C)n1Cc1ccccc1,-1.22
9,O=C(O)CC(NC(=O)C1CCCCC1)c1ccc(OC2CCCC2)cc1 (stereo not drawn),8.05
10,O=C(/C(N=Nc1cccc(C(F)(F)F)c1)=C(/O)c1cccs1)C(F)(F)F,0.282
11,COc1cc(C(=O)Nc2ccc3c(c2)ncn3C(C)(C)C)cc(OC)c1OC,9.04
12,Cc1cccc(-n2ncc3c(N4CCCc5ccccc54)ncnc32)c1,-8.09
13,O=C(O)CCn1c(SCc2cc(=O)n3ccccc3n2)nc2ccsc2c1=O,26.7
14,CC(C)(C)c1ccc(C(=O)NCC(=O)NCc2ccccn2)cc1,-8.45
15,COc1ccc(-c2csc3nc(C)nc(N4CCCCC4)c23)cc1OC,-7.85
16,Fc1ccc(Cn2nnnc2C(c2ccc(F)cc2)N2CC=C(c3ccc(F)cc3)CC2)cc1 (stereo not drawn),-2.44
17,CCOc1ccc2[nH]c(=O)c(C(c3nnnn3CC3CCCO3)N3CCc4ccccc4C3)cc2c1 (stereo not drawn),-27.9
18,CCCOCC(O)COc1ccccc1C(=O)N1CCOCC1 (stereo not drawn),10
19,CCCCN(C)S(=O)(=O)c1ccc(C(=O)Nc2nnc(-c3ccco3)o2)cc1,-7.77

row,SMILES,"hERG current change (%, negative = inhibition) at 10uM [%]"
1,COc1ccc(N2CCN(CC(=O)Nc3ccc(C)c(C)c3)CC2)cc1,-17.3
2,CCOC(=O)c1cc(CC)sc1NC(=O)CCC(=O)O,14.4
3,CCn1c(O)c(C=NCCN2CCOCC2)sc1=S,-2.65
4,CC/C(=N\NC(=S)Nc1ccc(OC)cc1)c1ccc(OC(F)F)cc1,-4.32
5,COC(=O)CNC(=O)COC(=O)/C=C/c1ccccc1[N+](=O)[O-],-2.63
6,NNC(=O)c1ccc(COCC(F)(F)F)cc1,12.6
7,CC(C(=O)N1CCN(C2c3ccccc3-c3ccccc32)CC1)N1C(=O)c2ccccc2C1=O (stereo not drawn),-13.3
8,S=C(NCc1ccccc1)NCc1ccccc1,7.96
9,CCN(Cc1cc(=O)n2ccsc2n1)Cc1nc2ccccc2c(=O)[nH]1,0.658
10,CC(=O)Oc1c(Cl)cc(Cl)cc1/C=C/c1ccc2ccccc2n1,-3.87
11,O=C(NNC(=O)NC1CCCCC1)NC1CCCCC1,17.8
12,COc1ccc(NC(=S)N2CCN(C)CC2)cc1,11
13,NS(=O)(=O)c1ccc(NC(=S)Nc2ccc(Br)c(Cl)c2)cc1,21.3
14,Cc1c(C#N)c(O)[nH]c(=O)c1N=Nc1ccc(S(N)(=O)=O)cc1,13.9
15,Nn1c(=O)c2ccccc2n2c(SCc3ccc(C(F)(F)F)cc3)nnc12,-21.4
16,CC(OC(=O)CCC1CCCC1)C(=O)Nc1ccccc1[N+](=O)[O-] (stereo not drawn),4.42
17,CC(C)c1ccc2oc(=O)cc(CN3CCCCC3)c2c1,-12.8
18,Cc1ccc(/C=N/N=C2/NC(=O)C(CC(=O)Nc3ccccc3)S2)o1 (stereo not drawn),6.65
19,Cc1ccc(S(=O)(=O)CC(=O)NCc2ccccc2)cc1,4.53
